From patent publication US12589158B2 (priority 2022, dated 2026)
Several values for one entry are separate records, joined by “and”; a condition that tells them apart may be missing. Equal values may be shown once. Part of at least one peptide drawing is inferred or uncertain, most often the ends.

Assays:
cat GLP-1R = assay: Agonistic activity on GLP-1R of different species (LANCE Ultra cAMP assay): cat; type: cell-based; details: ratio of EC50 value of other species to human EC50 value; smaller = stronger
dog GLP-1R = biological target: T1, dog GLP-1R (Canis lupus familiaris, UniProt A0A8I3NUR9); type: cell-based; details: ratio of EC50 value of other species to human EC50 value; smaller = stronger
T1 construct: expressed in transfected cells
T1 sequence (A0A8I3NUR9 1-464): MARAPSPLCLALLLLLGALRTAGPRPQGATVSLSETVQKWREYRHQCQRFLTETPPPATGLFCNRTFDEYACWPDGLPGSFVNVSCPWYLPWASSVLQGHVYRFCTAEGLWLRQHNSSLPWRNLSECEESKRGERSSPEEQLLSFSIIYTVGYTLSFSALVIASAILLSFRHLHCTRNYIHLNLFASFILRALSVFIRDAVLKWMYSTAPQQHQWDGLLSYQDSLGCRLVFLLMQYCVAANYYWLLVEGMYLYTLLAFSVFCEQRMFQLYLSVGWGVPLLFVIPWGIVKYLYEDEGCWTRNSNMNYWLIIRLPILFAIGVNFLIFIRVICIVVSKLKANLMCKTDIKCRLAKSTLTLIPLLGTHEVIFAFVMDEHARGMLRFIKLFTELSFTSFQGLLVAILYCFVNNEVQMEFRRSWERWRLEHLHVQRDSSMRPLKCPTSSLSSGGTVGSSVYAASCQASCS

mouse GLP-1R = biological target: T2, mouse GLP-1R (Mus musculus, UniProt O35659); assay: Agonistic activity on GLP-1R of different species (LANCE Ultra cAMP assay): mouse; type: cell-based; details: ratio of EC50 value of other species to human EC50 value; smaller = stronger
T2 construct: expressed in transfected cells
T2 sequence (O35659 22-463): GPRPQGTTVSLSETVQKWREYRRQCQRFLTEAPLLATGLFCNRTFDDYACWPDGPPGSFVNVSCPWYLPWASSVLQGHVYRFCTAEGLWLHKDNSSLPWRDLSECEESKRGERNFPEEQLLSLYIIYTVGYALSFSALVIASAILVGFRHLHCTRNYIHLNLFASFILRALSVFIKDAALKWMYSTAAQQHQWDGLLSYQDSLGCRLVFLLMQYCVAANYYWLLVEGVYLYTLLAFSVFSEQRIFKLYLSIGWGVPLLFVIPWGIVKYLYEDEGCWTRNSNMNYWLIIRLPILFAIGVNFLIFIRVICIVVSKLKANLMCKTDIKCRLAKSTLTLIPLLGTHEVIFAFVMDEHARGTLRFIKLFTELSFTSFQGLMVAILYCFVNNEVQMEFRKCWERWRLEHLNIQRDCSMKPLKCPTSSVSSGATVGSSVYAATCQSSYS

monkey GLP-1R = type: cell-based; details: ratio of EC50 value of other species to human EC50 value; smaller = stronger
cat GIPR = type: cell-based; details: ratio of EC50 value of other species to human EC50 value; smaller = stronger
rat GIPR = biological target: T3, rat GIPR (Rattus norvegicus, UniProt P43219); type: cell-based; details: ratio of EC50 value of other species to human EC50 value; smaller = stronger
T3 construct: expressed in transfected cells; host or cells: CHO-K1 (transient)
T3 sequence (P43219 19-455): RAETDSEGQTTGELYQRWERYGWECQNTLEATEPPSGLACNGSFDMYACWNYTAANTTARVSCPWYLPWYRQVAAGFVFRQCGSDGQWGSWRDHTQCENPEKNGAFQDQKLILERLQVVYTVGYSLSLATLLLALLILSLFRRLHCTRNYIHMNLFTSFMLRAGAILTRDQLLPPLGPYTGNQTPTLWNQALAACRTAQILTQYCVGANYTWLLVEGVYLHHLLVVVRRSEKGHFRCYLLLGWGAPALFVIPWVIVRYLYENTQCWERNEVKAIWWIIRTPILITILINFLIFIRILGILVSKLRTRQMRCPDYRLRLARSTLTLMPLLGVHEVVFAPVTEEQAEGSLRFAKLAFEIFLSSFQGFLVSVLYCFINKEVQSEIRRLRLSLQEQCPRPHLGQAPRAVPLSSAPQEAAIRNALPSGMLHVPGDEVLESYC

monkey GIPR = type: cell-based; details: ratio of EC50 value of other species to human EC50 value; smaller = stronger
db/db mice = assay: Multiple administration experiment on db/db mice; type: in vivo; details: s.c. every 3 days for 4 weeks, Mean ± SEM, 6 mice
DIO mice = assay: Weight loss effect in DIO mice obesity models; type: in vivo; details: Mean ± SEM, 10 mice
[1] = after 12 weeks; cited from earlier work
human GLP-1R [2] = biological target: T4, human GLP-1R (Homo sapiens, UniProt P43220); assay: In vitro binding activity to human GLP-1 receptor ([125I]GLP-1, crude cellular membranes); design: expressed in transfected cells; crude membranes; details: ratio of the Ki value of the endogenous ligand to the Ki value of the test compound; larger = stronger binding
T4 sequence (P43220 24-463): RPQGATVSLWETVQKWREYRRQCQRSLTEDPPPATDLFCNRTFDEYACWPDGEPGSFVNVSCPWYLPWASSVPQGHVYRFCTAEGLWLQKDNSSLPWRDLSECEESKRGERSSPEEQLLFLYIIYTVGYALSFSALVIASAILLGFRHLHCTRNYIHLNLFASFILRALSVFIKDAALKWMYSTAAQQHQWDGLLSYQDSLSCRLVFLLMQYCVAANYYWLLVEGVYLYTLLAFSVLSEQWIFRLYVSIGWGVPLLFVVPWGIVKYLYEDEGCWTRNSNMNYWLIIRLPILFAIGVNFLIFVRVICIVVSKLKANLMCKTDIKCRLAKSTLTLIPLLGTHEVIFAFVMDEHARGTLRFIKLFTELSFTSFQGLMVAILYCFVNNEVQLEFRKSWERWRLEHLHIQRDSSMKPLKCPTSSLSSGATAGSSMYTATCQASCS
Description: 89 μL of membrane dissolved in binding buffer (50 mM Hepes, pH 7.4, 5 mM MgCl2, 5 mM EDTA, 0.005% TWEEN, 0.005% HSA) is transferred to a 96-well test plate (5 μg/well). The compound is serially diluted in DMSO, and then, 1 μL of the diluted compound or 100% DMSO is added to the test plate containing the membrane solution. 10 μL of [^125I] […] The test plate is left at room temperature for 90 minutes. The membrane complexes are harvested into a GF/B plate pre-coated with 0.5% PEI by using a Cell Harvester, and washed for 3 times with 500 μL of pre-cooled elution buffer (50 mM Hepes, pH 7.4, 500 mM NaCl) at 4° C. After drying at 37° C. for 2 hours, 50 μL of scintillation fluid is added to each well. The plate is read with a MicroBeta2 scintillation counter after sealing and settling for at least 1 hour so as to determine the membrane bound radioligand level.
The absolute IC50 concentration of the compound is derived by non-linear regression of the binding percent of [^125I] […] The IC50 concentration is converted to Ki (Ki is the inhibition constant) using the Cheng-Prusoff equation.

human GLP-1R [3] = biological target: T4, human GLP-1R; assay: Agonistic activity on GLP-1R of different species (LANCE Ultra cAMP assay): human; type: cell-based; design: expressed in transfected cells; host or cells: HEK293/CRE/GLP-1R clonal cells; details: ratio of EC50 value of other species to human EC50 value (human = reference)

With CC[C@H](C)[C@H](NC(=O)[C@H](CC(C)C)NC(=O)[C@H](Cc1c[nH]c2ccccc12)NC(=O)[C@H](CCC(N)=O)NC(=O)[C@@H](NC(=O)[C@H](Cc1ccccc1)NC(=O)[C@H](C)NC(=O)[C@H](CCCCNC(=O)COCCOCCNC(=O)COCCOCCNC(=O)CC[C@H](NC(=O)CCCCCCCCCCCCCCCCCCC(=O)O)C(=O)O)NC(=O)[C@H](CCC(N)=O)NC(=O)[C@H](C)NC(=O)[C@@H](NC(=O)[C@H](CCCCN)NC(=O)[C@H](CC(=O)O)NC(=O)[C@H](CC(C)C)NC(=O)C(C)(C)NC(=O)[C@@H](NC(=O)[C@H](CO)NC(=O)[C@H](Cc1ccc(O)cc1)NC(=O)[C@H](CC(=O)O)NC(=O)[C@H](CO)NC(=O)[C@@H](NC(=O)[C@H](Cc1ccccc1)NC(=O)[C@@H](NC(=O)CNC(=O)[C@H](CCC(=O)O)NC(=O)C(C)(C)NC(=O)[C@@H](N)Cc1ccc(O)cc1)[C@@H](C)O)[C@@H](C)O)[C@@H](C)CC)[C@@H](C)CC)C(C)C)C(=O)N[C@@H](C)C(=O)NCC(=O)NCC(=O)N1CCC[C@H]1C(=O)N[C@@H](CO)C(=O)N[C@@H](CO)C(=O)NCC(=O)N[C@@H](C)C(=O)N1CCC[C@H]1C(=O)N1CCC[C@H]1C(=O)N1CCC[C@H]1C(=O)N[C@@H](CO)C(N)=O [Tirzepatide] as the compound, how does the “GLP-1R EC50 ratio, Cat” value (cat GLP-1R) read?
Its value is > 30 and 31.4.

What about the “GLP-1R EC50 ratio, Dog” value (dog GLP-1R) of the same compound?
Its value is > 80 and 84.84.

And the “GLP-1R EC50 ratio, Mouse” value (mouse GLP-1R)?
Its value is 0.57.

What about the “GLP-1R EC50 ratio, Monkey” value (monkey GLP-1R) of the same compound?
Its value is 3.31.

What about the “GIPR EC50 ratio, Cat” value (cat GIPR) of the same compound?
Its value is 8.05.

And the “GIPR EC50 ratio, Rat” value (rat GIPR)?
The value was 9.53.

What about the “GIPR EC50 ratio, Monkey” value (monkey GIPR) of the same compound?
Its value is 7.38.

And the “AUC 4-25 day Glu” value (db/db mice; 3 nmol/kg)?
Its value is 419.85 ± 26.42 mmol·days/L.

And the “D28 Fasting Blood Glucose” value (db/db mice; 3 nmol/kg)?
The value was 17.35 ± 1.21 mmol/L.

What about the “Serum TBIL” value (db/db mice; 3 nmol/kg) of the same compound?
Its value is 1.54 ± 0.17 µmol/L.

And the “AUC 4-25 day Glu” value (db/db mice; 10 nmol/kg)?
Its value is 355.68 ± 30.8 mmol·days/L.

And the “D28 Fasting Blood Glucose” value (db/db mice; 10 nmol/kg)?
The value was 13.82 ± 1.99 mmol/L.

And the “Serum TBIL” value (db/db mice; 10 nmol/kg)?
Its value is 1.2 ± 0.3 µmol/L.

What about the “AUC 4-25 day Glu” value (db/db mice; 30 nmol/kg) of the same compound?
The value was 252.7 ± 32.81 mmol·days/L.

What about the “D28 Fasting Blood Glucose” value (db/db mice; 30 nmol/kg) of the same compound?
The value was 10.88 ± 1.2 mmol/L.

And the “Serum TBIL” value (db/db mice; 30 nmol/kg)?
Its value is 0.91 ± 0.04 µmol/L.

What about the Insulin resistance index (DIO mice; 1 nmol/kg) of the same compound?
Its Insulin resistance index is 20.983 ± 4.926.

And the Insulin resistance index (DIO mice; 30 nmol/kg)?
The Insulin resistance index was 11.023 ± 4.147.

And the weight loss [1]?
Its weight loss is “about 5.6 kg”.

What about the “GLP-1R Ki ratio” value (human GLP-1R [2]) of the same compound?
The value was 0.28.

What about the “GLP-1R EC50 ratio, Human” value (human GLP-1R [3]) of the same compound?
The value was 1.00.
